Test results as given in PubChem BioAssay AID1240 (Sanford-Burnham Center for Chemical Genomics, 2008).
Among all 50,000 compounds or so, about 800 (1.6%) showed an effect of 50% or more. The list shows a part of the results.

What follows are compounds tested against Bcl-2-like protein 10 (Homo sapiens) (UniProt Q9HD36) (assay: Phenotype converters, Bcl-B/TR3 peptide binding displacement, primary biochemical FP (AID 1240;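 note: 0% = Bcl-B with tracer peptide and DMSO and 100% = tracer peptide lacking Bcl-B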)). Conditions: GST-Bcl-B / FITC-TR3 peptide fluorescence polarization; stronger effect = higher value; compound at 3.75 mg/L.
UniProt Q9HD36, sequence (Q9HD36 whole entry, looked up): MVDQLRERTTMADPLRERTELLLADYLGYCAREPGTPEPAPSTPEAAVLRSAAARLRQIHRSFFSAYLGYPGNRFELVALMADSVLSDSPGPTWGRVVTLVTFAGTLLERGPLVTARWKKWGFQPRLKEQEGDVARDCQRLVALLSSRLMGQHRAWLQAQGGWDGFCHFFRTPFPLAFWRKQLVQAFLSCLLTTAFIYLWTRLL
For CCCCn1c(-c2ccccc2)nc2ccccc21, the displacement was -4.2%.
In the case of O=S(=O)(NCc1ccc(F)cc1)c1ccc(Cl)cc1, the displacement is reported as 2.1%.
Brc1ccc(NCn2nnc3ccccc32)cc1 was tested, and the displacement was 4.4%.
CCOC(=O)/C(C#N)=C\c1c(C)cc(C)c(COC)c1C gave a displacement of 13.8%.
COC(=O)c1sc(NC(=O)c2ccccc2F)c(C(=O)OC)c1C gave a displacement of 11%.
COC(=O)C1=C(O)/C(=C/c2ccc(OCC(=O)Nc3ccccc3)cc2)N=C1C gave a displacement of 15.1%.
In the case of C/C(=N\NC(=O)COc1ccc(Cl)cc1Cl)c1ccc([N+](=O)[O-])cc1, the displacement is reported as 4.7%.
Work on CCOc1ccccc1NC(=O)CN(c1cccc(OC)c1)S(=O)(=O)c1ccccc1 yielded a displacement of 2.2%.
CCOC(=O)C1=CN(c2ccc(OCC)cc2)C=C(C(=O)OCC)C1c1ccc2c(c1)OCO2 gave a displacement of 1.2%.
For CCOc1ccc(N(CC(=O)NCc2ccco2)S(C)(=O)=O)cc1, the displacement was 11.1%.
In the case of Cc1ccc(OCCCCN2CCC(C)CC2)cc1, the displacement is reported as -3%.
In the case of Cc1cc(Cl)cc(Cl)c1OCCOCCN1CCN(C)CC1, the displacement is reported as -13%.
With CN1CCN(C(=O)c2ccc(Cl)c(Cl)c2)CC1 the displacement was 10.3%.
Work on COc1ccc(OC)c(/C=C2\SC(N3CCOCC3)=NC2=O)c1 yielded a displacement of -12.6%.
With COc1cc(NC(=O)COc2ccc(Cl)cc2Cl)c2ncccc2c1 the displacement was -9.3%.
Work on CCOP(=O)(OCC)c1nc2c(C)cccc2c(Nc2ccccc2C)c1Cl yielded a displacement of -8.7%.
COc1cc(/C=C(\C#N)c2ccc([N+](=O)[O-])cc2)ccc1O gave a displacement of 2.6%.
In the case of CC(C)OCCCNC(=O)C(=O)NCCc1ccc(Cl)cc1, the displacement is reported as -0.8%.
Compound O=C(NC(=S)Nc1cc([N+](=O)[O-])cc(Cl)c1O)c1cccnc1 has a displacement of 12.7%.
For Cc1ccc(C(=O)O)cc1-n1c(C)ccc1C, the displacement was 83.2%.
COc1cc(N2CCCCC2)ccc1[N+](=O)[O-] showed a displacement of -4.2%.
For O=C(NC(NC(=S)Nc1ccc(Cl)cc1Cl)C(Cl)(Cl)Cl)c1ccccc1Cl (configuration not stated), the displacement was -21.9%.
Work on Cc1ccccc1NC(=O)C1CC(=O)N(c2cccc([N+](=O)[O-])c2)C1 (configuration not stated) yielded a displacement of -12.2%.
CC(C)C(=O)Nc1sc2c(c1C(N)=O)CCCCC2 was tested, and the displacement was 1.5%.
Work on COc1ccc(NC(=O)/C(=C\c2cccc([N+](=O)[O-])c2)NC(=O)c2cccs2)cc1 yielded a displacement of -3.4%.
Compound O=C(c1cccc(F)c1)N1CCN(Cc2ccccn2)CC1 has a displacement of 6.4%.
In the case of CCN1C(=O)/C(=C/c2ccc(N3CCCC3)cc2)C(=O)NC1=S, the displacement is reported as 3.9%.
Compound CC(=O)CC(=O)Nc1cc(C)ccc1C has a displacement of -4.5%.
Compound O=C1N/C(=N\N=C\c2ccccc2F)SC1Cc1cccc([N+](=O)[O-])c1 (configuration not stated) has a displacement of 3.8%.
Compound Cc1ccccc1-n1c(C)cc(/C=N/NC(=O)c2ccc(CN3CCOCC3)cc2)c1C has a displacement of -18.5%.
In the case of COc1cccc(/C=C2\SC(N3CCCC3)=NC2=O)c1OC, the displacement is reported as -15.2%.
For CCOC(=O)C1=C(C)N(c2ccc(OC)cc2)C(=O)/C1=C\c1ccc(C(=O)O)cc1, the displacement was -3.4%.
Work on O=c1[nH]c(SCCOc2ccccc2F)nc2ccccc12 yielded a displacement of 2.5%.
For Cc1ccccc1/C=N/N=C1\NC(=O)C(Cc2cccc([N+](=O)[O-])c2)S1 (configuration not stated), the displacement was 31.3%.
With O=C1c2ccccc2C(=O)N1CCc1nc2ccccc2c(=O)n1-c1ccc(Br)cn1 the displacement was -10.3%.
Compound COc1cc2c(cc1NC(=O)c1cccc(F)c1)oc1ccccc12 has a displacement of -26.3%.
In the case of CC1CCCC(C(=O)O)N1C(=O)CCSC(=O)c1ccccc1 (configuration not stated), the displacement is reported as 10.8%.
Compound Cc1ccccc1/C(N)=N/OC(=O)c1ccc(C)c([N+](=O)[O-])c1 has a displacement of 0.4%.
Compound CC1=C(C(=O)Nc2cccc(Cl)c2)C(c2cccs2)NC(=S)N1 (configuration not stated) has a displacement of -9.2%.
For CC(=O)Oc1ccc(-c2cccc(C(=O)Nc3ccc([N+](=O)[O-])cc3)c2)cc1, the displacement was 7.8%.
With COc1ccc(C(=O)Nc2ccc(Br)cc2F)c(OC)c1 the displacement was -0.3%.
Compound COc1ccc(Cl)cc1C(=O)Nc1cccc(-c2nc3ncccc3o2)c1C has a displacement of 1.9%.
O=C1NN(c2ccc(Cl)cc2)C(=O)/C1=C\c1ccc(O)c(O)c1 showed a displacement of 13.5%.
COc1c(Br)cc(Br)cc1/C=c1\sc2nc3ccccc3n2c1=O showed a displacement of 21.9%.
For O=C(NCc1ccco1)c1nn2c(C(F)(F)F)cc(-c3ccccc3)nc2c1Cl, the displacement was 1.6%.
For Cc1cccc(NC(=O)CSc2nc(-c3ccccc3)c(-c3ccccc3)o2)c1C, the displacement was -0.2%.
In the case of COc1ccc(NC(=O)c2c(NC(=O)c3ccccc3)sc3c2CCCC3)cc1, the displacement is reported as 5.7%.
Work on CCOc1ccccc1C(=O)Nc1nc(C)cs1 yielded a displacement of 6.3%.
COc1ccccc1NCc1cccs1 showed a displacement of 11.4%.
In the case of Cc1cc(/C=C2/NC(=O)NC2=O)c(C)n1C, the displacement is reported as 23.7%.
With Cc1ccc(N(CC(O)CN2CCCCC2)S(=O)(=O)c2ccc([N+](=O)[O-])cc2)cc1 (configuration not stated) the displacement was -3.6%.
Work on CCCOC(=O)C1=C(C)NC2=C(C(=O)CCC2)C1c1cccc(F)c1 (configuration not stated) yielded a displacement of 2.2%.
O=C(NCCc1ccccc1)C(=O)NC1CCCC1 gave a displacement of 6.1%.
For O=C(N=Nc1c(O)[nH]c2c(Br)cc(Br)cc12)c1ccco1, the displacement was -12.3%.
For COC(=O)C1=C(C)NC2=C(C(=O)c3ccccc32)C1c1ccc(I)o1 (configuration not stated), the displacement was 10.7%.
Work on Cc1nc2ccc(Cl)cn2c1C(=O)NN=C1CCC(C(C)(C)C)CC1 (configuration not stated) yielded a displacement of -11.2%.
Work on CC(=O)Nc1ccc2c(c1)C(=O)c1ccccc1C2=O yielded a displacement of 3.4%.
For O=C(Nc1cccc(Cl)c1)c1ccc(NC(=O)c2cccs2)cc1, the displacement was 10.5%.
For O=C(COc1ccccc1)Nc1cc(C(=O)O)cc(C(=O)O)c1, the displacement was 3.9%.
COc1ccc(COC(=O)C2=C(C)NC(=O)NC2c2cc(Cl)c(O)c(OC)c2)cc1 (configuration not stated) gave a displacement of 5.9%.
Compound O=c1[nH]nc(SCc2cccc3ccccc23)c(=O)[nH]1 has a displacement of -9.4%.
NC(=O)c1ccccc1NC(=O)Nc1ccc(Cl)cc1 was tested, and the displacement was -9.1%.
For Cc1ccsc1/C=C1\SC(=S)N(C(C)c2ccccc2)C1=O (configuration not stated), the displacement was -6.6%.
Work on COc1ccc2c(c1OC)C(=O)N(c1cccc(F)c1)C2=O yielded a displacement of -12.7%.
Compound O=C(CSc1ncn[nH]1)Nc1ccc(C(=O)O)cc1 has a displacement of 4.3%.
With CCCC1CCC(c2nc(-c3cccnc3)no2)CC1 (configuration not stated) the displacement was -5.8%.
COC(=O)NC(c1ccc(F)cc1)C(Cl)(Cl)Cl (configuration not stated) gave a displacement of 8.7%.
For CCC/C(O)=C1\C(=O)CC(C)(C)CC1=Nc1cccc2ccccc12, the displacement was 0.8%.
Work on CCN(CC)CCCCOc1c(C)cc(Cl)cc1Cl yielded a displacement of 7.2%.
Compound COc1ccccc1NC(=O)C1=C(C)NC(=O)NC1c1ccc(Cl)cc1 (configuration not stated) has a displacement of 2.5%.
With CCc1ccc(-c2cc(C(=O)Nc3nccs3)c3ccccc3n2)cc1 the displacement was 3.8%.
Cc1cc(C)c(/C(O)=C/c2nc3ccccc3oc2=O)c(C)c1 gave a displacement of 13.8%.
